Test results reported in paper PMC4336329 (PLoS ONE, 2015).
Out of some 310,000 compounds screened, about 2,200 (0.71%) showed an effect of 50% or more. The effect is printed as a negative number. Some of the results follow.

molecular target: human ether-à-go-go-related gene (hERG) potassium channel (human, UniProt Q12809); assay: primary screen, population patch clamp on CHO cells stably expressing hERG
Sequence (Q12809 whole entry, looked up): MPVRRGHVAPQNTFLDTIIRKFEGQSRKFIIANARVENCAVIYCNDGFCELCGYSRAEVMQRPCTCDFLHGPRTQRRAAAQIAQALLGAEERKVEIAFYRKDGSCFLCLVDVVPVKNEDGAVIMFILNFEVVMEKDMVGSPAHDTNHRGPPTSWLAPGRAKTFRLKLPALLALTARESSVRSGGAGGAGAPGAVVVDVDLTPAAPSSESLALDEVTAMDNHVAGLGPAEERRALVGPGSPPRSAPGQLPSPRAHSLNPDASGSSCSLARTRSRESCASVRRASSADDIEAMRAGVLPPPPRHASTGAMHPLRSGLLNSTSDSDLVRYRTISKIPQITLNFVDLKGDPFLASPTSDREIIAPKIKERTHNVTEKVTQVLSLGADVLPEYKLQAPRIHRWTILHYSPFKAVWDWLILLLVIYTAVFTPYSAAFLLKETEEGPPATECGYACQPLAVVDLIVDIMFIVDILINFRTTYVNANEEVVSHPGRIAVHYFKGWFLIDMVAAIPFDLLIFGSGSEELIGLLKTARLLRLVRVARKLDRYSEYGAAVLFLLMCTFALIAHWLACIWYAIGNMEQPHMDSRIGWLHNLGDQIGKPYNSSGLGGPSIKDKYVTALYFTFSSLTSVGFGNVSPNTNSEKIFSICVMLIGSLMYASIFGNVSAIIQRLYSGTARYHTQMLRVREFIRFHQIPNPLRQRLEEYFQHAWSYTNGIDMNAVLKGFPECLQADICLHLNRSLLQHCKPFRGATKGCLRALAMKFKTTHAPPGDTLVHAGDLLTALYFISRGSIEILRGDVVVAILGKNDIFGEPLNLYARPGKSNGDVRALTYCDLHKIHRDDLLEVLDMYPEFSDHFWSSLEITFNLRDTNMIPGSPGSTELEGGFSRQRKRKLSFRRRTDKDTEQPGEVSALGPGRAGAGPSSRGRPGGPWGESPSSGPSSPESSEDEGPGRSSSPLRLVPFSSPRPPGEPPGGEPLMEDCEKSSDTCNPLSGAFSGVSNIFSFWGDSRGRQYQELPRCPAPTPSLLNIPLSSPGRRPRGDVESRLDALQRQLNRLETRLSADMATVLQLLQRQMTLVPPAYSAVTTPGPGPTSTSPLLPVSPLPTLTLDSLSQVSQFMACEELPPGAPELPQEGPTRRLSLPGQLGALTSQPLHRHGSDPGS

In order of rising “hERG current change (%, negative = inhibition) at 1uM” value:
1. CC1CC(C)CN(CCCNC(=O)c2csc3c2CCCCC3)C1 (centres unmarked)  -24.6%
2. Cc1cc(C)n2c(SC/C(O)=C(\C#N)c3nc4ccccc4[nH]3)nnc2n1  -19.2%
3. Cc1cc(NS(=O)(=O)c2ccc(C(C)C)cc2)no1  -11.6%
4. Cn1cc(CNCCCn2ncc3ccccc32)c(-c2ccccc2F)n1  -11.3%
5. COC(=O)c1cccc(NC(=O)CCNC(=O)c2ccc([N+](=O)[O-])cc2)c1  -8.03%
6. O=C(OCc1cn(-c2ccc(Cl)c(Cl)c2)nn1)c1ccccc1  -1.94%
7. CCOc1cc(C)ccc1OCc1nnc(SCC(=O)c2cccc([N+](=O)[O-])c2)n1CC  -1.84%
8. CCOC(=O)C1CCCN(CC(=O)NC2=Nc3ccccc3N=C(C)C2c2ccccc2)C1 (centres unmarked)  -0.9%
9. CCCCN(c1ccccc1)S(=O)(=O)c1cccc2cccnc12  -0.126%
10. N#Cc1c(-c2ccccc2)cc(-c2ccccc2)nc1Br  2.9%
11. COc1ccc2nc(N3CCCC(C(=O)NCCCN4C(C)CCCC4C)C3)sc2c1 (centres unmarked)  2.93%
12. CCOc1ccc(CC(=O)C2C(=O)CCCC2=O)cc1OCC  2.94%
13. CCOC(=O)C1=C2SCCN2C(=O)C(C#N)C1(C)C (centres unmarked)  2.97%
14. COCCNC(=O)Cn1c(=O)n(CCCCCC(=O)NCc2ccc3c(c2)OCO3)c(=O)c2sccc21  3.27%
15. COc1ccccc1-n1c(CNC(=O)c2ccco2)nnc1SCC(=O)Nc1cc(C)ccc1C  3.69%
16. COc1cc(-n2c(-c3ccccc3)n[nH]c2=S)c(OC)cc1Cl  4.69%
17. CC(C)Cc1n[nH]c(=O)c2c1nnn2Cc1ccccc1F  5.15%
18. O=C(NCCCN1CCOCC1)c1cccc(S(=O)(=O)N2CCc3ccccc3C2)c1  5.86%
19. CCNC(=S)Nc1c(C)n(C)n(-c2ccccc2)c1=O  6.26%
20. Cc1ccc(C)c(SCC(=O)Nc2ccc(C)c(S(=O)(=O)N3CCOCC3)c2)c1  6.29%
21. O=C(CSc1ccc2nnc(-c3ccncc3)n2n1)NCC1CCCO1 (centres unmarked)  6.96%
22. O=C(CSc1nc2ccc(Cl)cc2o1)NCc1ccc2c(c1)OCO2  7.69%
23. CC(=O)Nc1ccc(S(=O)(=O)NCc2ccc(C(=O)NCc3ccc4c(c3)OCO4)cc2)cc1  8%
24. O=C(CSc1nc2ncc(Br)cc2[nH]1)c1cccc([N+](=O)[O-])c1  8.8%
25. O=C(CSc1nnc(CNc2ccc(F)cc2)n1Cc1ccccc1)NCc1ccco1  10.2%
26. O=C(COC(=O)/C=C/c1ccccc1)Nc1cccc(Oc2ccccc2)c1  10.3%
27. O=C(CSc1ccc2nnc(CCNC(=O)c3ccccc3)n2n1)Nc1ccccc1F  10.8%
28. O=C(NNC(=O)c1ccccc1-n1cccc1)c1ccc(Cl)cc1  10.9%
29. Cc1cccc(OCCN2CSC(=S)N(C)C2)c1  11%
30. COc1ccc2sc(N(CCCN(C)C)C(=O)c3ccc(S(=O)(=O)N4CCCC4)cc3)nc2c1.Cl  11.1%
31. COc1ccc(-n2c(Cc3cc(=O)[nH]c(=O)[nH]3)nnc2SCC(=O)NC2CCCC2)cc1  11.2%
32. CCc1cccc(NC(=O)c2ccc(Cn3c(=O)[nH]c4ccsc4c3=O)cc2)c1  11.6%
33. Cc1cccc(OCCC(=O)OCc2csc(CC(=O)Nc3ccccc3C)n2)c1  11.6%
34. COc1cc(CN2C(=S)NC(C)(C)CC2(C)O)cc(OC)c1 (centres unmarked)  13%
35. Cc1cc(C)c(S(=O)(=O)c2cccc(Br)c2C)c(Cl)n1  13.1%
36. CC(=O)c1ccc(S(=O)(=O)N2CCCc3ccccc32)cc1  13.6%
37. CC(C)(C)c1ccc(C(CC(=O)O)NS(=O)(=O)Cc2ccccc2)cc1 (centres unmarked)  14.4%
38. Cc1cccc([N+](=O)[O-])c1NC(=O)COC(=O)c1nc2nccc(C)n2n1  14.7%
39. O=C(O)c1ccc(COc2ccc3c(c2)CCC3)cc1  15%
40. COc1ccc(CNc2nn[nH]n2)cc1OC  15.2%
41. CN1OCC2Cn3c(nc4ccccc43)C21 (centres unmarked)  16.4%
42. COc1cccc(N2C(=O)C3CCCN3C2c2cccs2)c1 (centres unmarked)  17.6%
43. CCCn1nc(C(=O)NNC(=O)c2cc(S(=O)(=O)NC)ccc2Br)c2ccccc2c1=O  18.3%
44. O=C(O)CCCC(=O)Nc1ccc(Br)cc1  21.6%
